# Measurements from PubChem BioAssay AID488969 (Vanderbilt High Throughput Screening Facility, 2010).
# Over roughly 110,000 compounds, “z-score” has its median near -0.1; the highest 2% begin near 2. The list shows a part of the results. Calls of active or inactive are those of the source.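 Rule for the calls: active = z-score in the third read window above 3 or below -3; inactive = the rest.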
# Target: Metabotropic glutamate receptor 8 (Rattus norvegicus) (UniProt P70579)
# Assay: rat mGluR8 modulators via GIRK flux, primary screen, cell-based, thallium flux, HTS (AID 488969)
# Settings: HEK293 rat mGluR8, GIRK (G protein-gated inwardly rectifying potassium channel) thallium flux, FluoZin2; at 10 µM; stronger effect = higher value; submaximal glutamate (EC20) added with thallium
# Chain of UniProt P70579 (P70579 whole entry, looked up): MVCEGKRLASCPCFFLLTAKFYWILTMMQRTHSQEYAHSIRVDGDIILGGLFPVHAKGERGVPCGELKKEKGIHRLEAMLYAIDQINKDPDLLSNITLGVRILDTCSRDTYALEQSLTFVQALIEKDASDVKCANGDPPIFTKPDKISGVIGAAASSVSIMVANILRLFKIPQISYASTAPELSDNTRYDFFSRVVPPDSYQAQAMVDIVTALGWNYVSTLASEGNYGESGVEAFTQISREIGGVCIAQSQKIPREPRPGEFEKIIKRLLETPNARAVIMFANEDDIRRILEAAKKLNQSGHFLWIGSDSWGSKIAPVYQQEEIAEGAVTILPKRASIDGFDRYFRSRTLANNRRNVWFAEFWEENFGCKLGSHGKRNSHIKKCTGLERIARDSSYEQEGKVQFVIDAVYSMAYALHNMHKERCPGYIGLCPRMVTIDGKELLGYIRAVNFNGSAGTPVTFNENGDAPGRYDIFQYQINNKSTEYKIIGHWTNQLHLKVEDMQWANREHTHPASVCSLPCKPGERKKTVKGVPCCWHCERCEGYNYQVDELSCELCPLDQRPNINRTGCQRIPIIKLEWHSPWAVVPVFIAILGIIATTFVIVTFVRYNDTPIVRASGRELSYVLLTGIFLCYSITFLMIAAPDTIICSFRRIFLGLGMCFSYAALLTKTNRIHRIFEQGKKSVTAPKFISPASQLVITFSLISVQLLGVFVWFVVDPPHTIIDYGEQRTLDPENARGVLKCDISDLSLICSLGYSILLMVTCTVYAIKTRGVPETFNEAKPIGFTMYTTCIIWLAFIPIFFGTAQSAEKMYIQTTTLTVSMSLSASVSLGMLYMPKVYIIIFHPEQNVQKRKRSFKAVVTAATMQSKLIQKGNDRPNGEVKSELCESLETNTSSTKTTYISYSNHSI
row,SMILES,z-score
1,CN(C)CCNC(NC(=O)c1cccs1)C(Cl)(Cl)Cl (centres undefined),-0.0966
2,C/C(=C\C(=O)O)CC(=O)O,0.0564
3,CCOc1ccc(CCNC(=O)CSc2cc(=O)n(C)c3ccc(Cl)cc23)cc1OCC,-0.212
4,CCOC(=O)C1=C(C)NC(=S)NC1c1cccs1 (centres undefined),0.159
5,C=CCN(CC=C)S(=O)(=O)c1ccc2nc(NC(=O)C3CCCO3)sc2c1 (centres undefined),-0.21
6,CCCN1Cc2cccc(C(=O)Nc3cc(OC)cc(OC)c3)c2C1=O,0.264
7,Cc1ncoc1C(=O)Nc1ccc2c(c1)OCCO2,-0.349
8,O=C(N/N=C/c1ccc(O)cc1)c1ccc(COc2cc(Cl)ccc2Cl)o1,-0.308
9,CCCc1cc(=O)[nH]c(SCC(=O)N2CCC(C(=O)OCC)CC2)n1,0.819
10,N=c1n(CCN2CCCCC2)c2ccccc2n1CC(O)c1cccc(Br)c1 (centres undefined),0.566
11,CCOC(=O)c1cnc2ccc(OCC)cc2c1N1CCN(c2ccccc2OC)CC1,-0.8
12,COC(=O)c1ccc(COc2cc(O)c3c(c2)OC(C)(C)CC3=O)cc1,-0.128
13,CCN(CC)C(=O)C(C)OC(=O)COc1ccc(Cl)cc1C (centres undefined),-0.745
14,Nc1cc(S(=O)(=O)C(F)(F)F)ccc1C(=O)O,0.966
15,Cc1c(N/C=C/C(=O)c2ccc(Cl)cc2)c(=O)n(-c2ccccc2)n1C,-0.424
16,O=C(N/N=C/c1ccc(-c2cccc(C(F)(F)F)c2)o1)c1ccccc1O,0.304
17,Cc1ccn2c(C(=O)N/N=C/c3ccc(CNC(=O)C(=O)Nc4ccc(C)c(C)c4)o3)c(C)nc2c1,0.623
18,Cc1cccc(OCc2n[nH]c(=S)n2C2CCCCC2)c1,1.58
19,Cc1ccc(CN2CCNC2=O)cc1,0.0114
20,Cc1ccc(NCC(=O)Nc2ccc(Br)cc2)cc1F,-0.218
21,CCCN(CCC)CCCNC(=S)Nc1ccc2nc3n(c(=O)c2c1)CCCCC3,0.0563
22,CSc1c(-c2ccccc2)nc2ccccc2c1C(=O)O,-0.543
23,O=C(NCc1ccco1)c1cccnc1-c1nc2ccccc2s1,-0.0281

row,SMILES,z-score
1,CCC(=O)Nc1ccc(C(=O)CSc2nnc(-c3ccc(O)cc3)n2CC2CCCO2)cc1OC (centres undefined),-0.293
2,Cc1nn(CC(=O)N2CCOCC2)c(C)c1[N+](=O)[O-],0.117
3,O=C(CCCOc1ccccc1)N1CCc2ccccc2C1,-0.208
4,CNC(=S)N1N=C(c2ccc(C)cc2)CC1c1ccc(Cl)cc1 (centres undefined),0.0666
5,C=CCNC(=S)NNC(=O)c1cccn(Cc2cccc(Cl)c2)c1=O,-1.25
6,N#CC1=C(Nc2ccccc2)SC=C(c2ccc(Br)cc2)N=C1N1CCOCC1,1.24
7,Cc1csc(NC(=O)CN2C(=O)C3CC=CCC3C2=O)n1 (centres undefined),-0.15
8,CN(C)S(=O)(=O)c1cccc(C(=O)Nc2cc(Cl)ccc2O)c1,0.0082
9,O=C(O)CCC(=O)N1CCC(C(=O)c2cccc(Cl)c2)CC1,-0.304
10,Cc1cc(C(=O)OCC(=O)c2ccc3c(c2)NC(=O)CO3)c2ccccc2n1,-0.0899
11,COc1ccccc1NC(=O)CSC1CC(=O)N(c2ccc3c(c2)OCO3)C1=O (centres undefined),-0.403
12,O=C(CSc1nnc(Nc2ccccc2)s1)NN1C(=O)NC2(CCCCC2)C1=O,2.14
13,c1ccc(CNc2ncnc3nc[nH]c23)nc1,-0.0174
14,S=C(NCCN1CCOCC1)N/N=C/c1ccccc1,0.728
15,COc1ccc(C(C(=O)NC2CCCCC2)N(C(=O)Cc2c[nH]c3ccccc23)c2ccc(NC(C)=O)cc2)cc1OC (centres undefined),-0.0903
16,CCCc1[nH][nH]c(=O)c1C(c1ccccc1)C(C#N)C#N (centres undefined),-1.39
17,Cc1cccc(C)c1OCC(O)CNC(C)(C)C (centres undefined),0.176
18,COc1ccc(-c2cc(C(=O)N3CCN(c4ccccn4)CC3)c3ccccc3n2)cc1,-0.597
19,COc1ccc(C2CC(=O)CC(=O)C2n2cncn2)cc1 (centres undefined),0.105
20,CCC(Oc1ccccc1)C(=O)Nc1nc2c(s1)C(=O)CC(C)(C)C2 (centres undefined),-0.962
21,CCN(CCCNC(=O)c1ccc(N2CCCC2=O)cc1)c1cccc(C)c1,-0.154
22,Oc1ccc(Oc2ccc3c(C(F)(F)F)cc(C(F)(F)F)nc3n2)cc1,-1.52
23,Cc1cccc(-c2nc3c(c(SCC(N)=O)n2)CCCC3)c1,0.543

row,SMILES,z-score
1,CN1CCN(c2cc3c(c4c2[nH]c2ccccc24)C(=O)CC(C)(C)C3)CC1,-0.0891
2,COc1ccccc1NC(=O)N1CCC(c2nc3cc(C)c(C)cc3[nH]2)CC1,0.249
3,CCOC(=O)Cn1c(=O)n(C2CCCC2)c(=O)c2ccccc21,-1.73
4,Cc1ccc(C)c(N2CCN(S(=O)(=O)c3ccc4c(c3)oc(=O)n4C)CC2)c1,0.548
5,CC(=O)c1cnc2c(-c3cccc(Br)c3)cnn2c1C,0.0939
6,O=C(CSc1nc2cc(Cl)ccc2s1)NCc1ccc2c(c1)OCO2,-0.0385
7,CCCCn1c(SCC(=O)N2c3ccccc3Sc3ccccc32)nc2c1c(=O)n(C)c(=O)n2C,-0.313
8,O=C(COC(=O)Cn1cnc2ccccc2c1=O)Nc1ccc(Cl)cc1,-0.163
9,c1cncc(C(c2nnnn2C2CCCC2)N2CCN(Cc3ccc4c(c3)OCO4)CC2)c1 (centres undefined),0.0897
10,Cc1ccccc1OCc1nnc(SCc2cc(=O)[nH]c3ccccc23)o1,-0.43
11,CC1Cc2nc(SCC(=O)N3CCc4ccccc43)n(C)c(=O)c2S1 (centres undefined),-0.426
12,CCN(C(=O)CSc1cc(-c2ccccc2)c2ccc(OC)cc2n1)C1CCS(=O)(=O)C1 (centres undefined),-0.108
13,COc1cccc(C(=O)COC(=O)C(C)N2C(=O)c3ccccc3C2=O)c1 (centres undefined),-0.703
14,Cc1onc(-c2ccccc2Cl)c1C(=O)N(Cc1nc(-c2ccccc2)no1)C1CCCCC1,-0.156
15,CCn1c(SCC(=O)Nc2nc3ccccc3s2)nnc1-c1ccc(Br)cc1,-0.423
16,CCc1c(C)nc2cc(-c3ccc(OC)c(OC)c3)nn2c1N1CCCC1,-1.67
17,COC(=O)CCC(=O)Nc1nc(-c2ccccc2)cs1,-0.155
18,CCOC(=O)c1ccccc1NC(=O)CSc1nnc(COc2ccccc2)n1CC,active: -3.94
19,O=C(NCc1ccco1)C1CCCN1C(=O)NCc1ccccc1 (centres undefined),0.459
20,O=C(Nc1cccc(C(F)(F)F)c1)Nc1ccc(N2CCCC2)c(S(=O)(=O)Nc2ccccc2Cl)c1,-0.0836
21,Cc1nc2cc(NC(=O)N(C)c3ccc4ccccc4c3)ccc2o1,0.358
22,CCOc1ccc(N/C=C/C(=O)c2ccc3ccccc3c2)c([N+](=O)[O-])c1,0.0139
23,O=C1NC(c2ccccc2Cl)Nc2ccccc21 (centres undefined),-0.44
